According to article PMC4336329 (PLoS ONE, 2015):
Hit rate of the full screen: of about 310,000 compounds, about 14,000 (4.5%) showed an effect of 50% or more. Effects have a minus sign here. The list shows a part of the results.

target: human ether-à-go-go-related gene (hERG) potassium channel (human, UniProt Q12809); assay: primary screen, population patch clamp on CHO cells stably expressing hERG
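Further: peak tail current of the secondary pulse compared with the same well before compound.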

human ether-à-go-go-related gene (hERG) potassium channel, sequence (Q12809 whole entry, looked up): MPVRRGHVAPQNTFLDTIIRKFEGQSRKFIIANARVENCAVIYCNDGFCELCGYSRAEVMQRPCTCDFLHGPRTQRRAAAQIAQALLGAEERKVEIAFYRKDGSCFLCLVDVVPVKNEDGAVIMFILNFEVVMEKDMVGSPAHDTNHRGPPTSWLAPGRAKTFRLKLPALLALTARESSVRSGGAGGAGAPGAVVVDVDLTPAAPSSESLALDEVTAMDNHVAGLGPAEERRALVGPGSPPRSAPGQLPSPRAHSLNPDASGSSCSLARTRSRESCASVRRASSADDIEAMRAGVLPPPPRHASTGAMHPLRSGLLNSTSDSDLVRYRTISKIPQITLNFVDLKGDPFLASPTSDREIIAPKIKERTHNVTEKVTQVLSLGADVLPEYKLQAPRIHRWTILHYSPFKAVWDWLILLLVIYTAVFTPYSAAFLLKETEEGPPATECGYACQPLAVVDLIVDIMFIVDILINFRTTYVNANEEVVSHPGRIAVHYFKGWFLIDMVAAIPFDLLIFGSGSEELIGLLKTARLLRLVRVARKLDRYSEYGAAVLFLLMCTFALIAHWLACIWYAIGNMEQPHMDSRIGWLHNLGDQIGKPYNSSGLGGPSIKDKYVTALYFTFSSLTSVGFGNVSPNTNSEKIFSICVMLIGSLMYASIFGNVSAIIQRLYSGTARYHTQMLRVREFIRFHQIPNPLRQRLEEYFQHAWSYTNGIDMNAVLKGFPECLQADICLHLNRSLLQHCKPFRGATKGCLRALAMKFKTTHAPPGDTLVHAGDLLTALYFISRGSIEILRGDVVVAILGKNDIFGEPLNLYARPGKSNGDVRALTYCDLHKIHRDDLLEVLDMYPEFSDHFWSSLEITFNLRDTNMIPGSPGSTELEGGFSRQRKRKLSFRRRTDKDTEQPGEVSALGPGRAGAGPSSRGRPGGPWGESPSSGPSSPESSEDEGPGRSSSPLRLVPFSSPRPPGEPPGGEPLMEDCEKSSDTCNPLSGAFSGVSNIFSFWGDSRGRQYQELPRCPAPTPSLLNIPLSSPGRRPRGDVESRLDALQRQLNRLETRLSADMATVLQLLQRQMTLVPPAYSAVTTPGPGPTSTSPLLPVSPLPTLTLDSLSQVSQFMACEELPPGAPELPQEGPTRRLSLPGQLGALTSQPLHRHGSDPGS

Structure (SMILES)	hERG current change (%, negative = inhibition) at 10uM [%]
OC(CN1CCN(C(c2ccccc2)c2ccccc2)CC1)c1ccccc1 (stereo not drawn)	-30.8
O=C(Nc1ncccc1O)c1cccc(S(=O)(=O)N2CCCC2)c1	2.37
Cc1c(CCC(=O)O)c(=O)oc2cc(OCc3cccc(Cl)c3)ccc12	33.2
COc1ccc(CCNC(=O)[C@H](C)NC(=O)[C@@H]2CSC3c4ccccc4C(=O)N32)cc1 (stereo partly drawn)	-3.88
CC(CNC(=O)CN1C(=O)NC2(CCCCC2)C1=O)c1ccccc1 (stereo not drawn)	3.82
CCn1c(NC(=O)C(C)C)c(-c2cccs2)c(=O)c2ccccc21	4.24
O=C(c1cc(-c2cccnc2)nc2ccccc12)N1CCCc2ccccc21	-13.2
COc1ccccc1CNS(=O)(=O)c1ccc2c(c1)NC(=O)C(C)S2 (stereo not drawn)	-22
Cc1ccc(CS(=O)(=O)Cc2ccc(C(=O)NCC3CCCO3)o2)cc1 (stereo not drawn)	12
CCCS(=O)(=O)N1CCC(C(=O)NCCc2ccccc2)CC1	1.42
N#C/C(=C(/O)c1ccc(Br)s1)c1nc2ccccc2[nH]1	7.16
CC(C)N1CCN(Cc2cccn2-c2ccccn2)CC1CCO (stereo not drawn)	-31.2
CCCSc1nc(SCC(=O)NCc2ccccc2)c2c3c(sc2n1)COC(C)(C)C3	7.66
O=C(COC(=O)CCC(=O)c1cccs1)Nc1cccc(F)c1	7.88
Nc1nncn1C(=O)c1ccccc1Cl	8.43
O=C(CCCCn1c(=O)c2ccccc2n(CC(=O)NC2CCCC2)c1=O)NC1CCCC1	-1.53
Cc1ccc(S(=O)(=O)N/N=C\c2cc3c(cc2[N+](=O)[O-])OCO3)cc1	15.4
COc1ccccc1Nc1nc(N)nc(CN2CCN(Cc3ccc4c(c3)OCO4)CC2)n1	-78.1
CCC(=O)c1ccc(OCc2ccc(C#N)cc2)cc1	7.33
Oc1ccccc1-c1cc(-c2ccco2)[nH]n1	2.39
CCNc1sc(C(=O)c2cccs2)c(N)c1-c1nc2ccccc2s1	10.6
C/C(CC(=O)Nc1ccc2c(c1)OCCO2)=N\NC(=O)COc1ccc(C)cc1	-12.7

Structure (SMILES)	hERG current change (%, negative = inhibition) at 10uM [%]
CN(C)c1ccc(P(=O)(CC(=O)N/N=C/c2ccc(C#N)cc2)OCCCl)cc1 (stereo not drawn)	-23.9
COc1ccccc1-n1nnnc1SCC(=O)Nc1oc(C)c2c(C)n[nH]c(=O)c12	0.431
CC(C)Sc1cc(N2CCCC2)nc(-c2ccccc2)n1	-5.24
Cc1ccc(Sc2nc(-c3ccccc3)ccc2C#N)cc1	7.27
Cc1ccc(C)c(S(=O)(=O)C(C#N)c2nc3ccccc3nc2N2CC(C)OC(C)C2)c1 (stereo not drawn)	4.01
O=C(COc1ccc(C2SCCS2)cc1)NNC(=O)C(Cl)Cl	9.56
CSc1ncc(-c2ccc(Cl)cc2)[nH]1	-1.02
O=C(Nc1cccc(C(F)(F)F)c1)c1ccccc1NC(=O)C1CCCCC1	12.3
CN(C)/C=C(\C(=O)c1cccc(Cl)c1)c1nnnn1-c1ccccc1	1.84
Cc1ccc(S(=O)(=O)NCc2cn3ccccc3n2)c(C)c1	14.7
CC(=O)c1c(C)[nH]c(C(=O)OCC(=O)NCc2ccc(Cl)cc2)c1C	0.997
COc1ccccc1NC(=O)c1sc2nc(Cc3ccccc3)cc(C(F)(F)F)c2c1N	-7.85
COc1ccc(C(=O)NC(=S)NCc2ccc(-c3nc4ccccc4o3)cc2)cc1OC	12.2
COc1ccccc1C(=O)C1CCCN(C(=O)c2cc(C(C)C)no2)C1 (stereo not drawn)	-5.26
Cn1nc(C(=O)Nc2cccc(C(=O)NC3CC3)c2)c2ccccc2c1=O	-35.3
O=C(NCCS(=O)(=O)N1CCN(c2ccc(F)cc2)CC1)c1ccco1	-62.2
Cc1nnc(SCC(=O)N/N=C/c2cc(Cl)c(O)c(Cl)c2)s1	10.2
Cc1csc(NC(=O)c2cccc([N+](=O)[O-])c2C(=O)O)n1	8.84
O=C(NN=C(Cc1ccccc1)Cc1ccccc1)c1ccccc1F	15.1
CC(C(=O)N1CCc2ccccc21)N(C)CC(=O)Nc1cccc(F)c1 (stereo not drawn)	-24.7
COc1ccc(C(=O)NCC23C=CC(O2)C2C(=O)N(Cc4ccccc4)C(=O)C23)cc1 (stereo not drawn)	-17.1
O=C(Nc1ccc(S(=O)(=O)N2CCCC2)cc1)C1CCCCC1	10.4

Structure (SMILES)	hERG current change (%, negative = inhibition) at 10uM [%]
Cc1ccc(S(=O)(=O)Nc2ccccc2C(=O)NCC2CCCO2)cc1 (stereo not drawn)	-15.3
CCOC(=O)c1oc2ccc(CNC(C)(C)C)c(Cl)c2c1C.O=C(O)C(=O)O	-5.61
O=C(Cc1c(F)cccc1Cl)Nc1ccncc1	-16.2
CCc1ccc(S(=O)(=O)N2CCN(c3ncccn3)CC2)cc1	21.1
Cc1cc(OCC(=O)Nc2cccc(S(=O)(=O)N3CCCCC3)c2)ccc1Cl	-3.31
Cc1ccc(SCC(=O)OCC(=O)N(C)CC(=O)Nc2ccc(F)cc2)cc1C	-38.7
COC(=O)Cn1c(=O)c2c(nc(Br)n2Cc2ccccc2Cl)n(C)c1=O	-20.8
CN(C)CCn1c(=O)n(C2CCCCC2)c(=O)c2c3c(sc21)CCCCC3	-25.3
CN1C(=S)SC2CS(=O)(=O)CC21C (stereo not drawn)	0.679
Cc1ccc(C(=O)Nc2ccc(S(=O)(=O)N3CCc4ccccc4C3)cc2)o1	1.81
Cc1cc2oc(=O)cc(Cn3ccnc3)c2cc1Cl	15
CCCOc1ccc2oc(=O)c3c(c2c1)CCCN3C(=O)CN1CCN(c2ncccn2)CC1	-70.1
Cc1ccc2nc(-c3ccncc3)cc(C(=O)Nc3ccc4c(c3)OCCO4)c2c1	3.46
O=C1[C@H]2[C@@H](c3ccc(F)cc3)N3C(=O)N(c4ccc(C(F)(F)F)cc4)C(=O)[C@@]3(Cc3ccccc3)[C@H]2C(=O)N1C1CCCCC1	10.9
COc1ccc(-c2cc(C(=O)N3CCCCCC3)no2)cc1OC	7.06
CCC(=O)c1ccc(OC)c(OC)c1O	7.65
Cc1ccc(C(=O)c2cc([N+](=O)[O-])ccc2N2CCOCC2)cc1C	-17
C=CCN1C(=O)C(CC(=O)O)SC1=Nc1ccc(C)cc1 (stereo not drawn)	10.3
COc1cc(OC)cc(-c2cc3nc(C4CCN(C(=O)OC(C)(C)C)CC4)cc(=O)n3[nH]2)c1	0.583
O=C(CSc1nnc(-c2ccccc2)c2ccccc12)NCCN1C(=O)CSC1=O	-27.6
O=C(OCC(=O)N1CCN(C(=O)c2ccco2)CC1)c1cc(-c2cccc(Br)c2)nc2ccccc12	-19.6
CN(CC(=O)Nc1ccc(Cl)c(Cl)c1)C(=O)/C=C/c1ccc(F)cc1	1.66

Structure (SMILES)	hERG current change (%, negative = inhibition) at 10uM [%]
CCc1cc(C(=O)OC)c(NC(=O)CN2CCN(C(=O)c3ccco3)CC2)s1	-51.6
CC(C)NC(=O)C1CCCN(S(=O)(=O)c2ccc(-n3cnnn3)cc2)C1 (stereo not drawn)	-15.3
CCCCn1c(O)c(C(=O)/C=C/c2c[nH]c3ccccc23)c(=O)[nH]c1=O	2.9
O=C(CN1C(=O)c2ccccc2C1=O)NCCc1c[nH]c2ccccc12	-15.5
CCOc1ccccc1C(=O)NCC(=O)O	22.6
COc1ccc([N+](=O)[O-])cc1NC(=O)Nc1ccc(OC)c(OC)c1	8.37
COc1ccc(O)c(C(=O)c2cc(C#N)c(=O)n(Cc3ccccc3)c2)c1	-20
C#CC1(NC(=O)NC(C)C)CCCCC1	11.4
CC(=O)c1nn(-c2cccc(C(F)(F)F)c2)c(=O)[nH]c1=O	13
Cc1nn(-c2ccccc2)c2nc(N)c(C(N)=O)cc12	6.55
O=C1c2ccccc2CCC12N=NCC2c1ccccc1 (stereo not drawn)	-25.4
O=C(c1ccc([N+](=O)[O-])o1)N(Cc1nnc(-c2ccccc2Cl)o1)C1CC1	-20.9
O=C(/C=C1\SC(=O)NC1=O)Nc1ccc(C(=O)O)cc1	24.4
O=C(COc1ccc(Br)cc1)Nc1ccccc1C(=O)NC1CC1	-6.57
O=C(Nc1c[nH]c2c(Cl)cccc2c1=O)N1CCN(c2ccccn2)CC1	-1.82
Cc1c(C(=O)N2CCN(Cc3ccc4c(c3)OCO4)CC2)cccc1[N+](=O)[O-]	-20.1
Fc1cccc(Nc2nc(N3CCOCC3)nc(N3CCOCC3)n2)c1	-16.3
CS(=O)(=O)Nc1ccc(C(=O)NCc2ccccn2)cc1	0.863
Cc1cccc(C(=O)NCCCNC(=O)c2ccc(C)nc2)c1	6.82
C/C(CCC(=O)O)=N/Nc1ccc([N+](=O)[O-])cc1[N+](=O)[O-]	-20.6
Cc1cc(C)c(C)c(S(=O)(=O)NCCCN2CCOCC2)c1C	13.6
